# Laboratory results published in the supplement of paper PMC8728848.
# The other results are listed elsewhere or left out.
# B1: AidA (Burkholderia cenocepacia) (protein)
# chain: MSRVTDVLVSFDTETILKKYPNPSKNPAAPTLIDWRYVYMVTNQDNVISGQAGGELDLKAQVGDLIRWRETSLSLGFENQVVFYKFIGNVGNDLISTPTPRVAEASIPVPNTSKPEVPTCQKVANYYWSSECLKVGRVTYHFQFQIIDRNCQSQGCFSWDPFISIHN
# Columns and labels:
# Test in all cases: glycan array binding signal (z-score within array); higher = stronger binding
# Details in all cases: glycan notation: IUPAC condensed, linker removed
# [1] = target: Gal(b1-4)GlcNAc(b1-3)Gal(b1-4)GlcNAc(b1-3)Gal(b1-4)GlcNAc(b1-3)Gal(b1-4)GlcNAc(b1-2)Man(a1-3)[Gal(b1-4)GlcNAc(b1-3)Gal(b1-4)GlcNAc(b1-3)Gal(b1-4)GlcNAc(b1-3)Gal(b1-4)GlcNAc(b1-2)Man(a1-6)]Man(b1-4)GlcNAc(b1-4)[Fuc(a1-6)]GlcNAc
# Procedure, shortened: (§1)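 Columns mapping to the same glycan were averaged after glycan names were converted to IUPAC-condensed notation. The data come from 3228 arrays in the Consortium for Functional Glycomics database, limited to those with an available protein sequence. Binding is reported as a within-array Z-score averaged across arrays of one protein sequence and across linkers.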
# [2] = target: Gal(b1-4)GlcNAc(b1-3)Gal(b1-4)GlcNAc(b1-3)Gal(b1-4)GlcNAc(b1-3)Gal(b1-4)GlcNAc(b1-2)[Gal(b1-4)GlcNAc(b1-3)Gal(b1-4)GlcNAc(b1-3)Gal(b1-4)GlcNAc(b1-3)Gal(b1-4)GlcNAc(b1-6)]Man(a1-6)[Gal(b1-4)GlcNAc(b1-3)Gal(b1-4)GlcNAc(b1-3)Gal(b1-4)GlcNAc(b1-3)Gal(b1-4)GlcNAc(b1-2)Man(a1-3)]Man(b1-4)GlcNAc(b1-4)[Fuc(a1-6)]GlcNAc
# Procedure, shortened: as §1
# [3] = target: Gal(b1-4)GlcNAc(b1-3)Gal(b1-4)GlcNAc(b1-3)Gal(b1-4)GlcNAc(b1-3)Gal(b1-4)GlcNAc(b1-3)Gal(b1-4)GlcNAc(b1-2)Man(a1-3)[Gal(b1-4)GlcNAc(b1-3)Gal(b1-4)GlcNAc(b1-3)Gal(b1-4)GlcNAc(b1-3)Gal(b1-4)GlcNAc(b1-3)Gal(b1-4)GlcNAc(b1-2)Man(a1-6)]Man(b1-4)GlcNAc(b1-4)GlcNAc
# Procedure, shortened: as §1
# [4] = target: Gal(b1-4)GlcNAc(b1-3)Gal(b1-4)GlcNAc(b1-3)Gal(b1-4)GlcNAc(b1-3)Gal(b1-4)GlcNAc(b1-3)Gal(b1-4)GlcNAc(b1-2)Man(a1-3)[Gal(b1-4)GlcNAc(b1-3)Gal(b1-4)GlcNAc(b1-3)Gal(b1-4)GlcNAc(b1-3)Gal(b1-4)GlcNAc(b1-3)Gal(b1-4)GlcNAc(b1-2)Man(a1-6)]Man(b1-4)GlcNAc(b1-4)[Fuc(a1-6)]GlcNAc
# Procedure, shortened: as §1
# [5] = target: Gal(b1-4)GlcNAc(b1-3)Gal(b1-4)GlcNAc(b1-3)Gal(b1-4)GlcNAc(b1-3)Gal(b1-4)GlcNAc(b1-3)Gal(b1-4)GlcNAc(b1-2)[Gal(b1-4)GlcNAc(b1-3)Gal(b1-4)GlcNAc(b1-3)Gal(b1-4)GlcNAc(b1-3)Gal(b1-4)GlcNAc(b1-3)Gal(b1-4)GlcNAc(b1-6)]Man(a1-6)[Gal(b1-4)GlcNAc(b1-3)Gal(b1-4)GlcNAc(b1-3)Gal(b1-4)GlcNAc(b1-3)Gal(b1-4)GlcNAc(b1-3)Gal(b1-4)GlcNAc(b1-2)Man(a1-3)]Man(b1-4)GlcNAc(b1-4)[Fuc(a1-6)]GlcNAc
# Procedure, shortened: as §1
# [6] = target: Gal(b1-4)GlcNAc(b1-3)Gal(b1-4)GlcNAc(b1-3)Gal(b1-4)GlcNAc(b1-3)Gal(b1-4)GlcNAc(b1-3)Gal(b1-4)GlcNAc(b1-3)Gal(b1-4)GlcNAc(b1-2)Man(a1-3)[Gal(b1-4)GlcNAc(b1-3)Gal(b1-4)GlcNAc(b1-3)Gal(b1-4)GlcNAc(b1-3)Gal(b1-4)GlcNAc(b1-3)Gal(b1-4)GlcNAc(b1-3)Gal(b1-4)GlcNAc(b1-2)Man(a1-6)]Man(b1-4)GlcNAc(b1-4)GlcNAc
# Procedure, shortened: as §1
# [7] = target: Gal(b1-4)GlcNAc(b1-3)Gal(b1-4)GlcNAc(b1-3)GalNAc
# Procedure, shortened: as §1
# [8] = target: Gal(b1-4)GlcNAc(b1-3)Gal(b1-4)GlcNAc(b1-3)[Gal(b1-4)GlcNAc(b1-3)Gal(b1-4)GlcNAc(b1-6)]GalNAc
# Procedure, shortened: as §1
# [9] = target: Gal(b1-4)GlcNAc(b1-3)Gal(b1-4)GlcNAc(b1-6)[Gal(b1-3)]GalNAc
# Procedure, shortened: as §1
# [10] = target: Gal(b1-4)GlcNAc(b1-3)Gal(b1-4)[Fuc(a1-3)]GlcNAc(b1-3)Gal(b1-4)[Fuc(a1-3)]GlcNAc
# Procedure, shortened: as §1
# [11] = target: Gal(b1-4)GlcNAc(b1-3)GalNAc
# Procedure, shortened: as §1
# [12] = target: Gal(b1-4)GlcNAc(b1-3)[Fuc(a1-3)GlcNAc(b1-6)]Gal(b1-4)Glc
# Procedure, shortened: as §1
# [13] = target: Gal(b1-4)GlcNAc(b1-3)[Gal(b1-4)GlcNAc(b1-6)]Gal(b1-4)GlcNAc
# Procedure, shortened: as §1
# [14] = target: Gal(b1-4)GlcNAc(b1-3)[GlcNAc(b1-6)]Gal(b1-4)GlcNAc
# Procedure, shortened: as §1
# [15] = target: Gal(b1-4)GlcNAc(b1-6)Gal(b1-4)GlcNAc
# Procedure, shortened: as §1
# [16] = target: Gal(b1-4)GlcNAc(b1-6)GalNAc
# Procedure, shortened: as §1
# [17] = target: Gal(b1-4)GlcNAc(b1-6)[Gal(b1-3)]GalNAc
# Procedure, shortened: as §1
# [18] = target: Gal(b1-4)GlcNAc(b1-6)[Gal(b1-4)GlcNAc(b1-3)]GalNAc
# Procedure, shortened: as §1
# [19] = target: Gal(b1-4)GlcNAc6P
# Procedure, shortened: as §1
# [20] = target: Gal(b1-6)Gal
# Procedure, shortened: as §1
# [21] = target: Gal3S(b1-3)GalNAc
# Procedure, shortened: as §1
# [22] = target: Gal3S(b1-3)GlcNAc
# Procedure, shortened: as §1
# [23] = target: Gal3S(b1-3)[Fuc(a1-4)]GlcNAc
# Procedure, shortened: as §1
binder,measurement,setting,value
B1,glycan array binding signal (z-score),[1],0.416
same,glycan array binding signal (z-score),[2],-0.096
same,glycan array binding signal (z-score),[3],-0.488
same,glycan array binding signal (z-score),[4],-0.941
same,glycan array binding signal (z-score),[5],0.252
same,glycan array binding signal (z-score),[6],0.682
same,glycan array binding signal (z-score),[7],-0.662
same,glycan array binding signal (z-score),[8],-0.014
same,glycan array binding signal (z-score),[9],-0.423
same,glycan array binding signal (z-score),[10],-0.556
same,glycan array binding signal (z-score),[11],-0.375
same,glycan array binding signal (z-score),[12],-0.573
same,glycan array binding signal (z-score),[13],-0.337
same,glycan array binding signal (z-score),[14],-0.319
same,glycan array binding signal (z-score),[15],0.006
same,glycan array binding signal (z-score),[16],-0.507
same,glycan array binding signal (z-score),[17],-0.159
same,glycan array binding signal (z-score),[18],-0.26
same,glycan array binding signal (z-score),[19],-0.044
same,glycan array binding signal (z-score),[20],-0.528
same,glycan array binding signal (z-score),[21],-0.316
same,glycan array binding signal (z-score),[22],2.41
same,glycan array binding signal (z-score),[23],0.147
